According to the antibiotic and cytotoxicity screens of Wong et al. (2023):
The list shows a part of the results.

Legend:
HSkMC = human skeletal muscle cells; experiment: cytotoxicity call (relative viability < 0.9); conditions: 10 µM
HepG2 = experiment: cytotoxicity call (relative viability < 0.9); conditions: 10 µM
S. aureus RN4220 = experiment: growth inhibition call (relative growth <= 0.2); conditions: 50 µM

Nc1ccc(-n2cccc2)cc1Cl
inactive: cytotoxicity call (HSkMC) | cytotoxicity call (HepG2) | growth inhibition call (S. aureus RN4220)

CC(C)NC(=O)N(C)C[C@H]1Oc2c(NC(=O)Nc3ccc4c(c3)OCO4)cccc2C(=O)N([C@@H](C)CO)C[C@@H]1C
inactive: cytotoxicity call (HSkMC) | cytotoxicity call (HepG2) | growth inhibition call (S. aureus RN4220)

C[C@@H]1CN([C@H](C)CO)C(=O)CCCn2nncc2CO[C@@H]1CN(C)S(C)(=O)=O
inactive: cytotoxicity call (HSkMC) | cytotoxicity call (HepG2) | growth inhibition call (S. aureus RN4220)

C[C@@H]1CCCCO[C@@H](CN(C)CC2CCCCC2)[C@H](C)CN([C@H](C)CO)C(=O)c2cc(NC(=O)CCCCCC(=O)Nc3ccccc3N)ccc2O1
inactive: cytotoxicity call (HSkMC) | cytotoxicity call (HepG2) | growth inhibition call (S. aureus RN4220)

COc1ccc(NC(=O)Nc2ccc3c(c2)C(=O)N([C@@H](C)CO)C[C@H](C)[C@@H](CN(C)Cc2ccc4c(c2)OCO4)OCCCC[C@@H](C)O3)cc1
inactive: cytotoxicity call (HSkMC) | cytotoxicity call (HepG2) | growth inhibition call (S. aureus RN4220)

COc1ccc(CN(C)C[C@H]2OCCCC[C@H](C)Oc3ccc(NC(=O)Nc4c(C)noc4C)cc3C(=O)N([C@@H](C)CO)C[C@H]2C)cc1
inactive: cytotoxicity call (HSkMC) | cytotoxicity call (HepG2) | growth inhibition call (S. aureus RN4220)

O=C(C[C@@H]1CC[C@H]2[C@@H](COC[C@H](O)CN2S(=O)(=O)c2ccc(F)cc2)O1)N[C@H]1CCN(Cc2ccccc2)C1
inactive: cytotoxicity call (HSkMC) | cytotoxicity call (HepG2) | growth inhibition call (S. aureus RN4220)

Cc1cccc(/C=N/Nc2cc(N3CCOCC3)n3nc(-c4ccncc4)cc3n2)c1
inactive: cytotoxicity call (HSkMC) | cytotoxicity call (HepG2) | growth inhibition call (S. aureus RN4220)

CC(C)NC(=O)N(C)C[C@@H]1Oc2ccc(NS(=O)(=O)c3ccccc3)cc2CC(=O)N([C@@H](C)CO)C[C@H]1C
inactive: cytotoxicity call (HSkMC) | cytotoxicity call (HepG2) | growth inhibition call (S. aureus RN4220)

C[C@@H]1CCCCO[C@H](CN(C)C(=O)c2ccccc2)[C@@H](C)CN([C@H](C)CO)C(=O)c2cc(NC(=O)NC3CCCCC3)ccc2O1
inactive: cytotoxicity call (HSkMC) | cytotoxicity call (HepG2) | growth inhibition call (S. aureus RN4220)
